According to PubChem BioAssay AID1345083 (National Center for Advancing Translational Sciences (NCATS), 2018):
About 6,200 (6.6%) of roughly 94,000 compounds were called active. This list was built around the results that the source calls inconclusive (neither active nor inactive); the mix of calls is not that of the screen. The call rests on the fitted dose curve; in most records, active means well fitted inhibition curve with a large enough effect; inconclusive means small, poorly fitted or top-dose-only effect; inactive means flat fitted curve, though single readings scatter. Where the call is inconclusive, the potency comes from a doubtful curve fit.

assay: Cytotoxic Profiling in HEK 293 Cell Line of Diverse Libraries Using Quantitative High-Throughput Screening; conditions: HEK 293 viability, ATP luminescence (CellTiter-Glo), 48-72 h; series mostly up to 115 µM; further: nearly all actives have a fitted effect of over 60% in size
Summary of the method: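 CellTiter-Glo luminescence (cellular ATP) was read after 48 or 72 hr of compound exposure at 37 degree Celsius. Cells were HEK 293 plated at 250 cells/well.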
Potency means the concentration at half of the fitted maximal effect; tags describe the fitted curve by direction and shape.

Q: For COc1ccccc1CNC[C@H]1O[C@H](Cc2cc(-c3ccccc3)on2)CC[C@@H]1O, which Potency is on record?
A: The Potency was inconclusive: 70.8 µM [inhibitor, partial curve, poor fit].

Q: With Cc1ccc(C(=O)NC2CCN(c3cc(-c4cccs4)[nH]n3)C2)c(C)c1 (stereo not given) as the compound, how does the Potency read?
A: Its Potency is “inactive”.

Q: Which Potency does the source give for Cc1ccc(C(=O)N[C@H]2CO[C@H]3[C@@H]2OC[C@@H]3n2cc(-c3ccccc3)nn2)cc1 here?
A: The Potency was inconclusive: 89.1 µM [inhibitor, partial curve, poor fit].

Q: For Cc1nnc(-c2cc(-c3cccc(CO)c3)ccn2)n1Cc1cccnc1, which Potency is on record?
A: The Potency was “inactive”.

Q: Which Potency does the source give for CC(C)NC(=O)C1CCc2sc(C(=O)N3CCCCCC3)cc2C1 (stereo not given) here?
A: Its Potency is “inactive”.

Q: With Cc1noc(C)c1-c1cc2c(c(-c3ccccc3)c1)C(=O)N(C)C2 as the compound, how does the Potency read?
A: The Potency was active: 39.8 µM.

Q: With CN1CCCCCCN(S(=O)(=O)c2ccccc2)[C@H]2CCC[C@H]2C1=O as the compound, how does the Potency read?
A: The Potency was inconclusive: 10 µM [inhibitor, full curve, poor fit].

Q: With CCCc1noc(-c2cn(C3CCN(C(=O)Cc4ccc(F)cc4)CC3)nn2)n1 as the compound, how does the Potency read?
A: Its Potency is “inactive”.

Q: For CCOc1ccccc1CN1CCOCCNC(=O)[C@H]2CCCC[C@H]21, which Potency is on record?
A: The Potency was inconclusive: 89.1 µM [inhibitor, partial curve, poor fit].

Q: With CNC(=O)c1cc(C2CC2)nc2c1c(C1CCN(C(=O)N3CCOCC3)CC1)nn2C as the compound, how does the Potency read?
A: The Potency was “inactive”.

Q: With C=CCNC(=O)c1cnn2c1CN(C(=O)OCc1ccccc1)CC2 as the compound, how does the Potency read?
A: Its Potency is inconclusive: 112 µM [inhibitor, partial curve, poor fit].

Q: For COc1ccc(OC)c(-c2nc3c(C)cccc3cc2CN2CCCC(O)C2)c1 (stereo not given), which Potency is on record?
A: Its Potency is inconclusive: 89.1 µM [inhibitor, single point].

Q: Which Potency does the source give for O=C(NC1CCCCC1)c1ccc2nnc(-c3ccc(OC(F)(F)F)cc3)n2c1 here?
A: Its Potency is inconclusive: 50.1 µM [inhibitor, partial curve, poor fit].

Q: Which Potency does the source give for Cc1nn(C)c(C)c1S(=O)(=O)N1CCC2(CC1)CC(Cc1cccc(F)c1)CCO2 (stereo not given) here?
A: Its Potency is inconclusive: 50.1 µM [inhibitor, partial curve, poor fit].

Q: For COc1ccc2[nH]c3c(c2c1)CCNC31CCN(C(=O)C2CC2)CC1, which Potency is on record?
A: The Potency was inconclusive: 89.1 µM [inhibitor, single point].

Q: Which Potency does the source give for CSc1ccc(-c2nc(CN3CCN(C(C)=O)CC3)c(C)o2)cc1 here?
A: Its Potency is inconclusive: 89.1 µM [inhibitor, single point].

Q: For Cn1nc(C2CCCC2)cc1NC(=O)C1CC1, which Potency is on record?
A: Its Potency is “inactive”.

Q: For CCn1c(C2CCCN(C(=O)c3ccc(C(C)(C)C)cc3)C2)nn(C)c1=O (stereo not given), which Potency is on record?
A: Its Potency is inconclusive: 35.5 µM [inhibitor, full curve].

Q: For COc1ccc(-c2cccc(C(=O)NCc3ccccc3)c2)nn1, which Potency is on record?
A: The Potency was inconclusive: 100 µM [inhibitor, partial curve].

Q: For COC(=O)NC1CCCN(Cc2ccc(-c3cncnc3)cc2)C1 (stereo not given), which Potency is on record?
A: The Potency was “inactive”.

Q: For Cc1ccc(-c2noc([C@@H]3Cc4nc[nH]c4CN3Cc3ccc(N(C)C)cc3)n2)cc1, which Potency is on record?
A: The Potency was active: 89.1 µM.

Q: Which Potency does the source give for COc1ccc(N2CCN(C(=O)c3ccc4c(c3)C(O)CCCCCN4C)CC2)cc1 (stereo not given) here?
A: Its Potency is inconclusive: 39.8 µM [inhibitor, full curve, poor fit].

Q: Which Potency does the source give for C[S+](=O)([O-])c1ccc(-c2cc(C(=O)NCC(F)F)nn3cccc23)cc1 here?
A: The Potency was inconclusive: 44.7 µM [inhibitor, partial curve, poor fit].

Q: With CN1CCOc2c(C(=O)NCCN3CCNC3=O)cc(-c3cccc4[nH]ccc34)cc21 as the compound, how does the Potency read?
A: The Potency was inconclusive: 100 µM [inhibitor, partial curve, poor fit].

Q: Which Potency does the source give for COCCN1CCCN(C(=O)C2CCCCC2)c2ccccc21 here?
A: Its Potency is inconclusive: 89.1 µM [inhibitor, partial curve, poor fit].

Q: With O=C1CCN(C(=O)C2CCN(C(=O)CCCc3ccccc3)CC2)CCCCCCN1 as the compound, how does the Potency read?
A: The Potency was “inactive”.

Q: For CSc1cccc(NC(=O)Cn2c(Nc3cc(C)cc(C)c3)nc(C)cc2=O)c1, which Potency is on record?
A: The Potency was inconclusive: 44.7 µM [inhibitor, partial curve, poor fit].

Q: For O=C(Cc1cccc(Cl)c1)NC1CCN(c2nccc(Nc3ccccc3F)n2)CC1, which Potency is on record?
A: The Potency was inconclusive: 35.5 µM [inhibitor, partial curve, poor fit].

Q: Which Potency does the source give for CC1=C[C@@H](CC#N)[C@H](C(C)C)C[C@H]1CC(=O)NC1CCCCC1 here?
A: Its Potency is active: 89.1 µM.

Q: Which Potency does the source give for Cc1ccccc1C(=O)N1CCC(CCC(=O)N2CCN(c3ccccn3)CC2)CC1 here?
A: The Potency was inconclusive: 89.1 µM [inhibitor, single point].

Q: For COC(=O)[C@@H]1Cc2ncn(Cc3ccccc3)c2CN1S(=O)(=O)c1cccs1, which Potency is on record?
A: Its Potency is “inactive”.

Q: For Fc1ccc2nc([C@H]3CCN(Cc4ncc[nH]4)C3)[nH]c2c1, which Potency is on record?
A: Its Potency is inconclusive: 141 µM [inhibitor, partial curve, poor fit].

Q: With COc1cccc(Cn2c(=O)c(-c3noc(C)n3)c3n(c2=O)CCCCC3)c1 as the compound, how does the Potency read?
A: The Potency was “inactive”.

Q: For Cc1nn(-c2ccccc2)c2c1C(C)N(CC1CN(C(=O)c3ccc4c(c3)OCO4)C1)C2=O (stereo not given), which Potency is on record?
A: Its Potency is inconclusive: 89.1 µM [inhibitor, single point].

Q: For Cc1ccc(-c2ncc(C(=O)Nc3ccccc3Cl)c(-c3ccncc3)n2)cc1, which Potency is on record?
A: The Potency was “inactive”.

Q: Which Potency does the source give for Cc1cc(CNc2ccc(-c3nc(CCCc4ccccc4)no3)cn2)no1 here?
A: The Potency was inconclusive: 50.1 µM [inhibitor, partial curve, poor fit].

Q: Which Potency does the source give for CCc1cnc(C)nc1N1CCC(=O)N(Cc2ccc(F)cc2)C(C(C)C)C1 (stereo not given) here?
A: The Potency was inconclusive: 50.1 µM [inhibitor, partial curve, poor fit].

Q: For CC(C)(C)c1nnc2ccc(C(=O)NCC3CC3)cn12, which Potency is on record?
A: Its Potency is “inactive”.

Q: Which Potency does the source give for CCOc1ccc(C(=O)N2[C@@H]3CC[C@H]2CC(NC(=O)c2cnc(C)cn2)C3)cc1OCC (stereo not given in full) here?
A: The Potency was “inactive”.

Q: Which Potency does the source give for COc1cc(F)ccc1-c1cc(C(=O)NCc2c(C)cc(C)[nH]c2=O)c2c(c1)ncn2C here?
A: The Potency was inconclusive: 31.6 µM [inhibitor, full curve, poor fit].

Q: For O=C(c1cc(F)ccc1Cl)N1CCN(c2cc(-c3ccccc3)[nH]n2)CC1, which Potency is on record?
A: The Potency was inconclusive: 50.1 µM [inhibitor, partial curve, poor fit].

Q: For Cn1nccc1C(=O)N1CCC(Oc2ccc(-c3noc(-c4ccccc4)n3)cc2)C1 (stereo not given), which Potency is on record?
A: Its Potency is active: 22.4 µM.

Q: Which Potency does the source give for Cc1ccc(NC(=O)c2ccc3c(c2)N(C)C2CCCCN2C3=O)cc1Cl (stereo not given) here?
A: The Potency was inconclusive: 44.7 µM [inhibitor, partial curve, poor fit].

Q: With CCn1nc(C)c(-c2cc(C(=O)N3CCc4nc5cc(-c6ccccc6)[nH]n5c(=O)c4C3)no2)c1C as the compound, how does the Potency read?
A: Its Potency is “inactive”.

Q: With O=C(c1ccc(Cl)nc1)N1CCN(c2ccc3nnc(C4CC4)n3n2)CC1 as the compound, how does the Potency read?
A: The Potency was “inactive”.

Q: For CCn1cc(-c2ccc(Cl)cc2)cc1C(=O)NCc1ccncc1, which Potency is on record?
A: The Potency was inconclusive: 3.98 µM [inhibitor, full curve, poor fit].

Q: For OC1CN(Cc2ccc(-c3cnc4c(OCc5ccccc5)nccn34)cc2)C1, which Potency is on record?
A: Its Potency is inconclusive: 100 µM [inhibitor, partial curve, poor fit].

Q: Which Potency does the source give for Cn1cccc1C(=O)N1CCN(C(=O)c2nnn3c2COC(c2ccc(Cl)cc2)C3)CC1 (stereo not given) here?
A: Its Potency is inconclusive: 28.2 µM [inhibitor, full curve, poor fit].

Q: With CS(=O)(=O)CCC(=O)N1CCC2(CC1)[C@H](O)C[C@@H]2OCCN as the compound, how does the Potency read?
A: The Potency was “inactive”.

Q: Which Potency does the source give for Cc1nn(C)c2nc(N3C[C@@H]4CCN(C)[C@@H]4C3)sc12 here?
A: Its Potency is “inactive”.

Q: Which Potency does the source give for C[C@H]1[C@@H]2[C@H]3OC(=O)[C@@H](C)[C@@H]3CC[C@@]2(C)CC[C@@H]1NC(=O)c1ccc(C#N)cc1 here?
A: Its Potency is inconclusive: 112 µM [inhibitor, partial curve].

Q: For Cc1ccc(NC(=O)N[C@H]2C[C@@](O)(C(=O)N[C@H](CC(C)C)C(N)=O)C[C@@H](O)[C@@H]2O)cc1, which Potency is on record?
A: The Potency was “inactive”.

Q: For COC1C(=O)N(c2cccc(F)c2)C12CCN(C(=O)NCc1ccc(C)cc1)CC2 (stereo not given), which Potency is on record?
A: Its Potency is inconclusive: 56.2 µM [inhibitor, partial curve, poor fit].

Q: Which Potency does the source give for O=C(Cc1cccc(F)c1)N1CCC2(CC1)N=C(c1ccc(Cl)cc1)NO2 here?
A: Its Potency is inconclusive: 50.1 µM [inhibitor, partial curve, poor fit].

Q: Which Potency does the source give for Cc1cnc(C2CCN(S(=O)(=O)c3ccc4c(c3)CCC4)C2)n1C(C)C (stereo not given) here?
A: Its Potency is inconclusive: 89.1 µM [inhibitor, single point].

Q: Which Potency does the source give for COc1cccc(NC(=O)c2cc(-c3ccc(C(F)(F)F)cc3)nc3c2cnn3C)c1 here?
A: The Potency was active: 39.8 µM.

Q: With COCC(=O)N[C@@H]1CN(S(=O)(=O)c2cn(C)cn2)CC[C@@H]1c1nc(C)no1 as the compound, how does the Potency read?
A: Its Potency is “inactive”.

Q: For OC1(CN2CCN(CCc3ccccn3)CC2)CCCNC1 (stereo not given), which Potency is on record?
A: Its Potency is “inactive”.

Q: Which Potency does the source give for COc1ccccc1-c1nc(C(=O)NC(C)C)n2ccncc12 here?
A: Its Potency is inconclusive: 100 µM [inhibitor, partial curve].

Q: For CNC(=O)[C@@H]1CN(C(=O)c2cc(C)n(CCOC)c2C)C[C@H]1c1n[nH]c(C)n1, which Potency is on record?
A: Its Potency is inconclusive: 100 µM [inhibitor, single point].

Q: Which Potency does the source give for CC(C)OCCCNC(=O)c1ccc(Cn2ccn3nc4c(c3c2=O)CCCC4)cc1 here?
A: Its Potency is inconclusive: 56.2 µM [inhibitor, partial curve, poor fit].

Q: For COc1cccc(CNC(=O)Cn2c(N3CCc4ccccc4C3)nc(C)cc2=O)c1, which Potency is on record?
A: Its Potency is active: 44.7 µM.

Q: With COc1ccc(N2C(=O)C3(CCCCC3)C2C(=O)NCCc2c(C)noc2C)cc1 (stereo not given) as the compound, how does the Potency read?
A: The Potency was “inactive”.

Q: With COc1ccc(-c2cc(N3CCCN(C(=O)Cc4ccccc4Br)CC3)n[nH]2)cc1 as the compound, how does the Potency read?
A: Its Potency is inconclusive: 50.1 µM [inhibitor, partial curve, poor fit].

Q: With C=CCN1Cc2cc(F)ccc2N(CC(O)COc2ccccc2)CCC1=O (stereo not given) as the compound, how does the Potency read?
A: Its Potency is active: 44.7 µM.
